Measured values reported in patent US20250122280A1, “ANTI-Ly6E ANTIBODIES, IMMUNOCONJUGATES, AND USES THEREOF” (Genentech, Inc., priority 2022, published 2025).

Molecular target: T1, Ly6E (Homo sapiens, UniProt Q16553)
T1 sequence (Q16553 21-101): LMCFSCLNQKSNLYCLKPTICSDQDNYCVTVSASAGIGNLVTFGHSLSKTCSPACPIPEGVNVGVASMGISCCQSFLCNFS
Test: Flow cytometry binding of anti-Ly6E antibodies to cells expressing Ly6E
Settings: Kuramochi, NCI-H1781, HCC1569x2, compared with 9B12
Protocol: Chimeric anti-Ly6E was compared to a previously described anti-Ly6E antibody (9B12) (Asundi et al., Clin. Canc. Res. 2015, 3252-3262) for binding to cells expressing Ly6E. Cell lines were cultured as recommended by the ATCC. Prior to staining adherent lines were released by Accutase treatment, all cells were filtered and equilibrated in BD Stain buffer (BSA). Cells were stained with primary antibodies at indicated concentrations for 1 h at 4° C., washed ×3, stained with secondary Ab (Jackson ImmunoResearch 109-606-003) (1:100) for 1 h at 4° C., washed, stained with Fixable Viability Dye eFluor 780 (1:1000) for 1 h at 4° C., and washed ×2. Samples were fixed in 1% PFA (PBS) prior to analysis. Samples were assessed on a BD LSRFortessa. Following exclusion of dead cells, singlets were assessed for antibody binding using FlowJo software (FIGS. 2A-2C).
The Ly6E antibody was humanized by grafting the HC and LC CDRs into human germline frameworks (IGHV3-73*01/IGHJ1*01 and IGKV1-33*01/IGKJ2*01 respectively) and iterating between human and rat residues at Vernier positions to maximize binding while minimizing non-human residues. […] Cysteine residues were incorporated at previously described positions to enable generation on THIOMAB® antibodies (Ohri et al., Bioconj Chem. 2018, 473-485). […]

B1: Chimeric anti-Ly6E: rat-human chimeric anti-Ly6E antibody clone 3A3 (SEQ ID NOs. 4 and 6) (protein)
light: DIVMTQSPTSISISVGERVTMNCKASQNVGSNVDWYQQKTGQSPELLIYKASNRYTGVPGRFTGSGSGTDFTFTISNLQAEDLAVYYCMQSDTKYTFGAGTKVEIKRTVAAPSVFIFPPSDEQLKSGTASVVCLLNNFYPREAKVQWKVDNALQSGNSQESVTEQDSKDSTYSLSSTLTLSKADYEKHKVYACEVTHQGLSSPVTKSFNRGEC
heavy: AVQLVEFGGGLVQPKESLKISCAASGFTFSTVAMHWVRQAPGKGLEWIARIRTKPVNYETYYADSVKGRFTISRDDSKSMVYLQMDNLKTEDAAMYYCSAPNYYDGTYSFAYWGQGTLVTVSS[sequence of human IgG1 constant region omitted]
modifications: Chimeric variable light chain amino acid sequence of anti-Ly6E antibody clone 3A3; Chimeric heavy chain amino acid sequence of anti-Ly6E antibody clone 3A3
- binding to cells expressing Ly6E: enhanced binding compared to 9B12
